# PubChem BioAssay AID1671194 (National Center for Advancing Translational Sciences (NCATS), 2021)
# “And” between values parts separate entries of the source, which are not always exact repeats. Equal values may be shown once. Hit rate of the full screen: of about 140,000 compounds, about 240 (0.17%) were called active. Inconclusive means that the source gave no clear call. Such entries were picked first, then a sample of the others. Calls come from the whole dose curve; as a rule, active = well fitted inhibition curve with a large enough effect; inconclusive = small, poorly fitted or top-dose-only effect; inactive = no such curve, though single readings can be large or run the other way. Potencies beside an inconclusive call are fits to weak or partial responses and may not hold up.
# Assay: Primary qHTS assay for inhibitors of alpha-synuclein gene (SNCA) expression; note: nearly all actives have a fitted effect of over 45% in size
# Settings: HEK-293 SNCA-luciferase knock-in, luminescence, 24 h; series mostly up to 57.2 µM
# Potency is the fitted concentration of half-maximal effect; tags give direction and shape of the fitted curve.
row,Structure (SMILES),Potency
1,COc1ccc(-n2nc(C3CCCN(C(=O)c4ccc(Cl)nc4)C3)[nH]c2=O)cc1 (stereo unspecified),"inconclusive: 35.5 µM [inhibitor, single point]"
2,CNC(=O)[C@@H]1CN(C(=O)C2(c3ccc(OC)cc3)CC2)C[C@H]1CO,inactive
3,CN1CCN(C(=O)C2CCc3nc(N4CCN(C(=O)C5CCC5)CC4)sc3C2)CC1 (stereo unspecified),inactive
4,CN1CCN(C(=O)c2cn3cc(-c4cccnc4)sc3n2)CC1,inactive
5,CCCN1CCCC12Cc1ccccc1CN([S+](=O)([O-])c1ccccc1)C2 (stereo unspecified),"inconclusive: 12.6 µM [inhibitor, partial curve, poor fit]"
6,Cc1cc(OCC(=O)N(Cc2ccc(N(C)C)cc2)Cc2ccco2)cc(C)c1Cl,"inconclusive: 39.8 µM [inhibitor, single point]"
7,COc1ccc(NC(=O)Cn2c(=O)n(Cc3ccco3)c(=O)c3sc4ccccc4c32)c(OC)c1,"inconclusive: 0.178 µM [inhibitor, full curve, poor fit]"
8,COCCN1CCCCCC(O)c2cc(C(=O)NCc3ccc(C)o3)ccc21 (stereo unspecified),inactive
9,O=C(Nc1noc2ccccc12)c1cccc(Cl)c1Cl,"inconclusive: 10 µM [inhibitor, single point]"
10,Cc1ccc(CNC(=O)c2cc3c(=O)oc4ccc(C)cc4c3s2)cc1,inactive
11,O=C1NCc2ccccc2CC12CCN(Cc1c(F)cccc1F)C2 (stereo unspecified),"inconclusive: 3.16 µM [inhibitor, full curve, poor fit]"
12,CN1CC(=O)N(C2CCC2)Cc2c(NCCc3ccc(Cl)cc3)ncnc21,inactive
13,Nc1ccc2oc(-c3ccccc3Br)nc2c1,"inconclusive: 39.8 µM [inhibitor, single point]"
14,CN(C)Cc1nnc(C2CC(NC(=O)c3conc3-c3ccccc3)C2)n1C (stereo unspecified),inactive
15,COC(=O)c1sccc1S(=O)(=O)N(CC(=O)Nc1ccccc1C)c1ccc(Cl)cc1,"inconclusive: 12.6 µM [inhibitor, single point]"
16,N#CCCn1c(=O)c(-c2ccc(Cl)cc2)nc2cnc(Nc3ccccc3)nc21,"inconclusive: 22.4 µM [inhibitor, single point]"
17,CC(C)Cc1noc(-c2ccc(N3CCC(O)CC3)nc2)n1,"inconclusive: 12.6 µM [inhibitor, single point]"
18,COc1cccc(-c2nc3cnccn3c2NCCC(=O)N2CCN(C)CC2)c1,inactive
19,COc1cc(Cl)c(C)cc1NC(=O)CN1C(=O)NC(c2ccc(Cl)cc2)C2=C1COC2=O (stereo unspecified),"inconclusive: 31.6 µM [inhibitor, single point]"
20,COc1ccc(NC(=O)N2CCc3c(C(=O)NC(C)C)cccc32)cc1,active: 3.55 µM
21,CCc1ccc(NC(=O)C2CCc3nc(N4CCN(C(=O)C(C)C)CC4)sc3C2)cc1 (stereo unspecified),inactive
22,CC1(c2ccccc2)N(Cc2ccccc2F)C(=O)OC12CCN(Cc1c[nH]c3ccccc13)CC2 (stereo unspecified),"inconclusive: 25.1 µM [inhibitor, single point]"

row,Structure (SMILES),Potency
1,Cc1ccc(C)c(CN2C(=O)c3ccccc3S(=O)(=O)c3ccc(C(=O)NCCc4ccc(Cl)cc4)cc32)c1,"inconclusive: 31.6 µM [inhibitor, single point]"
2,O=C1COCCN1C1CCN(Cc2cccnc2)CC1,"inconclusive: 17.8 µM [inhibitor, single point] and inconclusive: 35.5 µM [inhibitor, single point]"
3,CCc1noc(-c2cccn3c(CNC(=O)c4ccc(C)c(F)c4)nnc23)n1,"inconclusive: 6.31 µM [inhibitor, full curve, poor fit]"
4,Cc1cccc(C2c3cc(OCc4nc(C(=O)NCC5CC5)co4)ccc3CCN2C(=O)C2CC2)c1 (stereo unspecified),"inconclusive: 10 µM [inhibitor, partial curve, poor fit]"
5,Cc1cc(=O)[nH]c(CCNc2nc(-c3ccncc3)nc3c2c(C)nn3C)n1,inactive
6,O=C(CCNc1c(-c2ccc(F)cc2)nc2cnccn12)NC1CCCC1,inactive
7,COc1ccc(-c2cc(N3CCCC(NC(=O)c4cc(Cl)ccc4OC)C3)n[nH]2)cc1 (stereo unspecified),"inconclusive: 39.8 µM [inhibitor, single point]"
8,O=C(NCCc1ccc(F)cc1)c1ccc2nnc(-c3cc(F)ccc3F)n2c1,"inconclusive: 1.26 µM [inhibitor, full curve, poor fit]"
9,Cc1ccc(Cn2cc(CCC(=O)NCC(C)c3ccccc3)c3ccccc32)cc1 (stereo unspecified),"inconclusive: 14.1 µM [inhibitor, partial curve, poor fit]"
10,CCS(=O)(=O)Nc1ccc2[nH]c(O)c(C(=Nc3ccc(CN4CCCCC4)cc3)c3ccccc3)c2c1,active: 1.21 µM
11,Cc1ccc(-n2c(C3CCN(C(=O)c4cc(Cl)ccc4F)CC3)n[nH]c2=O)cc1,"inconclusive: 31.6 µM [inhibitor, partial curve, poor fit]"
12,Cc1cc2cc(-c3c(C)noc3C)nc(NCCN(C)C)c2o1,inactive
13,COc1ncc2nc(-c3ccccc3)c(=O)n(Cc3cccs3)c2n1,inactive
14,COc1ccccc1CCC(=O)NC(C)C(=O)N1CCN(c2ccccn2)CC1 (stereo unspecified),inactive
15,c1ccc(-c2ccnc(NCCc3c[nH]c4ccccc34)n2)nc1,inactive
16,CCc1nc2c(c(-c3ccc(OC)cc3)n1)CCN(Cc1ccsc1)CC2,"inconclusive: 20 µM [inhibitor, single point]"
17,O=C1NCCCCCCN(C(=O)C2CC=CC2)[C@H]2C[C@H](c3nc(Cc4ccccc4)no3)C[C@@H]12,inactive
18,CCOc1ccc(NC(=O)Cn2c(N3CCCCC3)nc(C)c(C)c2=O)cc1,"inconclusive: 8.91 µM [inhibitor, single point]"
19,COC(=O)[C@H](Cc1ccc(OC)cc1)NC(=O)[C@H]1CN(C(=O)Nc2ccccc2)CCN1S(C)(=O)=O,"inconclusive: 39.8 µM [inhibitor, single point]"
20,CCC1(O)CCCN(C(=O)c2coc(COc3ccc4ccc(OC)cc4c3)n2)C1 (stereo unspecified),"inconclusive: 20 µM [inhibitor, partial curve, poor fit]"
21,COc1cccc(C(=O)N2CCCC2C(=O)N2CCC(N3Cc4cccn4C3=O)CC2)c1 (stereo unspecified),inactive
22,Cc1cn2nc(C(=O)N3CCCC3)cc2c(N(C)Cc2ccccc2)n1,"inconclusive: 15.8 µM [inhibitor, partial curve, poor fit]"

row,Structure (SMILES),Potency
1,CN(Cc1ccccc1)Cc1nc2c(n1Cc1ccccc1)C(=O)N(Cc1cccc(Cl)c1)CCN2,"inconclusive: 39.8 µM [inhibitor, single point]"
2,Cc1ccccc1Cn1c(=O)n(CCCCCC(=O)NCc2ccc3c(c2)OCO3)c(=O)c2sccc21,"inconclusive: 39.8 µM [inhibitor, single point]"
3,COC(=O)NC1CCN(c2nc3ncccc3o2)C1 (stereo unspecified),inactive
4,C[S+](=O)([O-])N1CCN(C(=O)c2nc3cccnc3n(CCc3ccccc3)c2=O)CC1,inactive
5,Cc1ccc2c(C)c(C(=O)N3CC[C@H](O)[C@@H](O)C3)oc2c1,inactive
6,CC(C)c1noc(Cn2nc(-c3ccccc3)c3ccccc3c2=O)n1,inactive
7,CS(=O)(=O)N1CCC(N2C(=O)C3(CCCCC3)C2c2ccncc2)CC1 (stereo unspecified),"inconclusive: 39.8 µM [inhibitor, single point]"
8,O=C(Cn1c(SCC(=O)Nc2ccc(F)cc2)nc2ccccc21)NCc1ccc(Cl)cc1,"inconclusive: 15.8 µM [inhibitor, partial curve, poor fit]"
9,O=C(c1cc(C2CC2)no1)N1CCC2(CCCN(C3CCCC3)C2=O)C1 (stereo unspecified),"inconclusive: 3.55 µM [inhibitor, full curve, poor fit]"
10,CCOc1ccccc1CNC(=O)c1ccc2c(c1)nc1n2CCC(C)C1 (stereo unspecified),"inconclusive: 22.4 µM [inhibitor, single point]"
11,CCCn1cc2c3c(cccc31)CN(C(=O)c1cccc(C#N)c1)CC2,inactive
12,Cc1nc2ccc(C(=O)NCc3cccnc3Oc3ccccc3C)cc2[nH]1,"inconclusive: 6.31 µM [inhibitor, single point]"
13,O=C(c1cnccn1)N1CCCC(n2cc(-c3nc(-c4ccccc4)no3)nn2)C1 (stereo unspecified),inactive
14,Cc1ccccc1NC(=O)Cn1cc(S(=O)(=O)N2CCCC2)c(S(=O)(=O)N2CCCC2)c1,"inconclusive: 35.5 µM [inhibitor, single point]"
15,COc1ccc(C(=O)NCC2(COc3ccccc3)C[C@@H](O)[C@@H](O)C2)cc1 (stereo partly specified),inactive
16,CCn1cc2nc(SCc3cccc(C)c3)n(CCc3ccccc3)c(=O)c2n1,"inconclusive: 25.1 µM [inhibitor, single point]"
17,CN(Cc1ccccc1)Cc1cn([C@H]2CO[C@H]3[C@@H]2OC[C@@H]3NS(=O)(=O)Cc2ccccc2)nn1,inactive
18,CCOC(=O)c1ccc(NC(=O)CCC(=O)N2CCSc3ccccc32)cc1,"inconclusive: 39.8 µM [inhibitor, single point]"
19,O=C(NCCCc1ccccc1)c1nn(-c2ccccc2)nc1CO,"inconclusive: 39.8 µM [inhibitor, single point]"
20,O=C(Cn1cc(S(=O)(=O)c2ccccc2)c(=O)c2cc3c(cc21)OCO3)Nc1ccccc1,"inconclusive: 0.501 µM [inhibitor, full curve, poor fit]"
21,COc1cccc(-c2nc(SCC(=O)NCC3CCCO3)c(-c3ccc(Cl)cc3)[nH]2)c1 (stereo unspecified),"inconclusive: 39.8 µM [inhibitor, single point]"
22,CC(=O)c1cccc(NC(=O)CCCSc2nc(-c3ccco3)cc(C(F)(F)F)n2)c1,"inconclusive: 39.8 µM [inhibitor, single point]"
